Molecules are shown by their SMILES.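 Dose response: 5 concentrations. Exposure: 48 h. Format: 96-well plates. Endpoint: linear interpolation; highest concentration if not reached. GI50 = concentration required for 50% inhibition of growth. The concentration for full growth arrest is given as TGI.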 Numbered stars: 1 amine (or outer) side, 2 acyl side, 3 side chain; on linkers, the order of the positions; unused ones are H or OH. Bridge positions count the residues as written; N and C are the ends. Square brackets hold non-standard residues; d marks the D form. Peptide text beside a SMILES is read from it. * marks the point of attachment. ξ: configuration not given here. Phe(3,5-F2) = N[C@@H](Cc1cc(F)cc(F)c1)C(=O)O; ξThr(3S) = C[C@H](O[*:3])C(N[*:1])C(=O)[*:2]; X19 = C[C@H]1OCCN([*:1])[C@@H]1C(=O)[*:2]; Phe(3-F) = N[C@@H](Cc1cccc(F)c1)C(=O)O; Pro(4R-Me) = C[C@H]1CN[C@H](C(=O)O)C1; aThr = C[C@H](O)[C@H](N)C(=O)O; X18 = O=S(=O)(F)Oc1ccc(N*)cc1; Pip = O=C(O)[C@@H]1CCCCN1; X7 = CCc1ccc(N*)c(F)c1; CO = O=C([*:1])[*:2]

The assay deals with NCI-H322M lung. Briefly: NCI tumour cell line growth inhibition, 48 h.
With `O=C(NNc1nc2cc(F)ccc2n2c(CN3CCC(O)C3)ccc12)c1cnccn1` (stereo not given), the GI50 was 0.387 µM and the TGI is above 100 µM.
Turning to `CCc1ccc(NC(=O)N[C@@H](Cc2cccc(F)c2)C(=O)N[C@@H]2C(=O)N3CCC[C@H]3C(=O)N3CCCC[C@H]3C(=O)N[C@@H](C)C(=O)N3C[C@H](C)C[C@H]3C(=O)O[C@H]2C)c(F)c1` ({X7-CO}-[Phe(3-F)][aThr]P[Pip]A[Pro(4R-Me)]; ester 2-C), the GI50 was 0.744 µM and the TGI was 45.5 µM.
Turning to `C[C@@H]1C[C@H]2C(=O)O[C@@H](C)C(NC(=O)[C@H](Cc3cc(F)cc(F)c3)NC(=O)Nc3ccc(OS(=O)(=O)F)cc3)C(=O)N3CCC[C@H]3C(=O)N3CCO[C@H](C)[C@H]3C(=O)N[C@@H](CO)C(=O)N2C1` (stereo partly drawn) ({X18-CO}-[Phe(3,5-F2)][ξThr(3S)]P[X19]S[Pro(4R-Me)]; ester 2-C), the GI50 is 5.41 µM and the TGI was above 100 µM.
For `COc1cc(OC)c(S(N)(=O)=O)cc1C(=O)/C=C/c1ccc(C)cc1`, in that order: 2.87 µM and 12 µM.
For `C/C(=N/NC(N)=S)c1ccc(Nc2nc(SCC(C)C)nc(-c3ccc(F)cc3)c2C#N)cc1`, in that order: 2.22 µM and 25.4 µM.

Source of the values: PubChem BioAssay (NCI).
